3 compounds from PubChem BioAssay AID1918999 (Molecular Pharmacology Branch, DTP, NCI, 2023) can be followed below.

The test system of the experiment is 556581-035-R-J1-PDC complex spheroid growth. Nature of the experiment: Anticancer human tumor 556581-035-R-J1-PDC patient-derived ovarian carcinoma cell line growth inhibition [AhR]. Conditions: stronger effect = lower value. From the text: Multicellular complex tumor spheroid response to aryl hydrocarbon receptor antagonists in combination with a variety of drugs and investigational agents in selected tumor cell lines
The current study was undertaken to assess response to aryl hydrocarbon receptor antagonists in combination with standard-of-care drugs and investigational agents in solid tumor complex spheroid models. Complex spheroids include a stromal component modeled by human endothelial cells (HUVEC) and fibroblasts modeled by human mesenchymal stem cells (MSCs). The concentration ranges selected for each drug and investigational agent were based upon clinically achievable concentrations if the clinical Cmax of the agent was known.
Compounds. The drugs and investigational agents: BAY 2416964 (NSC825713), GNF351 (NSC835774), CH-223191 (NSC835775), CPI-455 (NSC825282), aza-TdCyd (NSC777586), decitabine (NSC127716), belinostat (NSC758774), entinostat (NSC756642), pevonedistat (NSC761192), tazemetostat (NSC777109), talazoparib (NSC765396), olaparib (NSC753686), selinexor (NSC780203), nedisertib (M3814, NSC802822), bortezomib (NSC756655), venetoclax (NSC766270), doxorubicin (NSC123127), elimusertib (BAY189344, NSC800525), ceralasertib (AZD6738, NSC777638), TAK-243 (NSC785004), alisertib (NSC759677), etoposide (NSC141540), topotecan (NSC609699), eribulin (NSC707389), gemcitabine (NSC613327), carboplatin (NSC241240), cisplatin (NSC119875), and SN-38 (NSC673596) were obtained from the National Cancer Institute (NCI) Developmental Therapeutics Program Chemical Repository (32). The FDA-approved anticancer drug set is available from the Developmental Therapeutics Program at https://dtp.cancer.gov/organization/dscb/obtaining/available plates.htm. […] The stock solutions were prepared in dimethyl sulfoxide (DMSO, Sigma-Aldrich, St. Louis, MO, cat. D2650), except for the platinum compounds which were prepared in saline (Quality Biological, Gaithersburg, MD, cat. 114-055-101), at 800-fold the tested concentration and stored at -70 degrees C prior to their use. All drugs and investigational agents were tested over a range starting from a high concentration at or near the clinical Cmax and decreasing in half-log increments. If the clinical Cmax for an agent had not been determined, the highest concentration tested was 10 microM (Table 1).
Cell Culture. All cells were maintained in an incubator at 37 degrees C and 5% CO2 with 95% humidity. The PDC lines were cultured according to standard operating procedures established by the NCI PDMR (https://pdmr.cancer.gov). Briefly, all PDCs were thawed and cultured in Matrigel-coated flasks prepared with a working solution of 1X Ham's F-12 nutrient mix, without supplementation (Invitrogen, Waltham, MA, cat. 11765054), 100 U/mL penicillin-streptomycin (Invitrogen, cat. 15140122), and 2.5% Matrigel (Corning Inc., Corning, NY, cat. 354248) for the first three passages. All PDCs were cultured in complete DMEM/F-12 media containing advanced DMEM/F-12 (Invitrogen, cat. 12634028), 4.9% defined fetal bovine serum, heat inactivated (HyClone Laboratories Inc., Logan, UT, cat. SH30070.03HI), 389 ng/mL hydrocortisone (Sigma-Aldrich, cat. H4001), 9.7 ng/mL human EGF recombinant protein (Invitrogen, cat. PHG0313), 23.4 microg/mL adenine (Sigma-Aldrich, cat. A2786), 97.3 U/mL penicillin-streptomycin (Invitrogen, cat. 15140122), 1.9 mM L-glutamine (Invitrogen, cat. 25030081), and 9.7 microM Y-27632 dihydrochloride (Tocris Bioscience, Bristol, United Kingdom, cat. 1254). The PDCs were cultured in complete DMEM/F12 media without 10 microM Y-27632 dihydrochloride for at least two passages prior to the screen. The established cell lines NCI-H1341 and […] were cultured in DMEM/F-12, HEPES (Invitrogen, cat. 11330032), 5% defined fetal bovine serum (HyClone Laboratories Inc., cat. SH30070.03), ITS premix universal culture supplement [insulin (5 microg/mL), transferrin (5 microg/mL), and selenious acid (5 ng/mL)] […]

The structures appear in SMILES notation. The source holds more than one record for some entries. This list holds those alone. The source may hold further records. Values given together are repeats in other runs, samples, wells, individuals or studies. Counts like (3×) give the number of equal values in this list.
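Also: compound exposure lasted 7 days; 100% = DMSO vehicle control growth.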

Turning to `CC(CO)NC(=O)c1cc(-c2ccc(Cl)cc2)nn(-c2cnn(C)c2)c1=O` (stereo unspecified), the viability, T/C runs as follows: (compound alone 0.316 µM) 107, 86, 93.6, 87, 94.8, 104, 101 (3×), 96.1, 96.4, 96, 93.1, 93.2, 116 (2×), 97.5, 103, 111, 102, 115%; (compound alone 1 µM) 100 (2×), 82.9, 92.3, 82.1, 107, 92.4, 102 (2×), 89.8, 113, 101, 104 (2×), 94.6, 98.3, 111, 112, 90.6, 95.4, 106%; (compound alone 3.16 µM) 104 (3×), 82.9, 87.2, 114, 91.8, 88.4, 100, 89, 103, 98.1, 102, 113, 101, 96.6, 107, 82.4, 86.2%; (compound alone 10 µM) 122, 90.1, 90.2, 111 (3×), 104, 109, 93, 114, 102, 93.1, 93.8, 106, 101, 108, 107, 91.2, 89%.
As to `Cc1cncc(-c2nc(NCCc3c[nH]c4ccccc34)c3ncn(C(C)C)c3n2)c1`, the viability, T/C (compound alone 0.1 µM) was 97.5, 101 (2×), 94.6, 92.4, 95.6, 91, 104, 103, 112, 121, 107, 84.9, 94.8, 88.5, 90.2, 91.3, 97.7, 94.9, 102%; the viability, T/C (compound alone 1 µM) was 94.6, 101 (2×), 126, 111, 102, 103, 96, 96.2, 109, 110, 125, 99.9, 99.2, 108, 96.4, 98.3, 105, 106, 100%; the viability, T/C (compound alone 3.16 µM) is 104, 92.1, 97.3, 116, 99.4, 117, 102, 93.5, 96.5, 107 (3×), 95.8, 98.3, 95, 96.3, 90.2, 79, 97.5, 86%.
Take `Cc1ccccc1N=Nc1ccc(NC(=O)c2ccnn2C)c(C)c1`: the viability, T/C runs as follows: (compound alone 0.1 µM) 102 (2×), 82.8, 106 (2×), 101 (3×), 96.6, 89.5, 94.5, 107, 117, 95.4, 104, 97.3, 92.2, 90.3, 94.9, 108%; (compound alone 0.316 µM) 97.4, 95.5, 107 (2×), 104, 96.2, 97.5, 94.9, 99, 106 (2×), 99.5, 101 (2×), 108, 103, 102, 80.6, 98.5, 105%; (compound alone 3.16 µM) 106, 82.9, 105, 95.6, 89.8, 103 (3×), 93.9, 98.5, 94.4, 96.8, 90.3, 94.9, 92.9 (2×), 89.2, 80.8, 86.1, 94.8%; (compound alone 10 µM) 101, 81.4 (2×), 93.4, 81, 91.9, 98.1, 92.5, 74.1, 89.6, 81.8, 90.4, 79.1, 97.1, 104, 82.2, 90.1, 95.7, 79.4, 93.8%.
